Each structure is given as a SMILES string. Hit rate of the full screen: of about 310,000 compounds, about 2,200 (0.71%) showed an effect of 50% or more. Effects have a minus sign here. The list shows a part of the results.

The target in the assay is human ether-à-go-go-related gene (hERG) potassium channel (human, UniProt Q12809). The assay can be described thus: primary screen, population patch clamp on CHO cells stably expressing hERG.
Sequence of human ether-à-go-go-related gene (hERG) potassium channel (Q12809 whole entry, looked up): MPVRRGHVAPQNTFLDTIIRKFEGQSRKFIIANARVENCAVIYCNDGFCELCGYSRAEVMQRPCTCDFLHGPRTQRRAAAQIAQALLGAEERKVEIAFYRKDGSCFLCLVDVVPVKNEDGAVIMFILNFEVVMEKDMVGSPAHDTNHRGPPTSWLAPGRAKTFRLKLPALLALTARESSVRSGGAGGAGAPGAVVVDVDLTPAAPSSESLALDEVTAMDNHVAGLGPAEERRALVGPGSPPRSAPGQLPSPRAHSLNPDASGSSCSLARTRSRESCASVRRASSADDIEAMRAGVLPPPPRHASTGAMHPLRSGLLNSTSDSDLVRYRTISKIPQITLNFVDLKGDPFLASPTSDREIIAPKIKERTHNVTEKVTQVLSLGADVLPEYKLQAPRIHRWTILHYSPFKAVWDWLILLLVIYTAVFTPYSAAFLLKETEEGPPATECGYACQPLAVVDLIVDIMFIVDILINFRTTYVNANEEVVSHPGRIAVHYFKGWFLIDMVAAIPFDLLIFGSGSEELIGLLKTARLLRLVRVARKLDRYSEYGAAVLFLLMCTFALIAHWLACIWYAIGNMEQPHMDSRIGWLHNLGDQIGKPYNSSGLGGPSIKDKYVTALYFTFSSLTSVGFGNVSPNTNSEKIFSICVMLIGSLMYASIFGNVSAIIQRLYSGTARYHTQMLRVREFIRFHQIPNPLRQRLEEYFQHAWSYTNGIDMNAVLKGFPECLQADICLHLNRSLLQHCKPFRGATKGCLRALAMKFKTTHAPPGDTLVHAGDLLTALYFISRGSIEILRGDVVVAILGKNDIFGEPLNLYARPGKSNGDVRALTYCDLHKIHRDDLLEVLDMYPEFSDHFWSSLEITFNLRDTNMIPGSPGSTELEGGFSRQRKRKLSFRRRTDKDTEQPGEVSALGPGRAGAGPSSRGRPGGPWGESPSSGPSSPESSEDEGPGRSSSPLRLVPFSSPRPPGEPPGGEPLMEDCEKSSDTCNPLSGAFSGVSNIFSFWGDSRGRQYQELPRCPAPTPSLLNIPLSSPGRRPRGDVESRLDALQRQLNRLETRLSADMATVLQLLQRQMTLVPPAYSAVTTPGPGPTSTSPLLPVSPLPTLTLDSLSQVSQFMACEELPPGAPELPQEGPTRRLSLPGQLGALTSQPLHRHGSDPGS
As to `CCN(Cc1nc2ccccc2c(=O)[nH]1)C(=O)c1cccc(S(=O)(=O)N2CCc3ccccc32)c1`, the “hERG current change (%, negative = inhibition) at 1uM” value turned out to be 3.53%.

As for `CNc1nc(N)c([N+](=O)[O-])c(Nc2ccccc2OC)n1`, the “hERG current change (%, negative = inhibition) at 1uM” value was 14.1%.

`Oc1c(Br)cc(Br)cc1Oc1ccc(Br)cc1Br`: the “hERG current change (%, negative = inhibition) at 1uM” value was 12.6%.

As to `CCOC(=O)c1c(NC(=S)Nc2ccccc2C)sc2c1CCC2`, the “hERG current change (%, negative = inhibition) at 1uM” value came to 12.5%.

For the compound `COc1ccc(/C=N\N=C(N)N)cc1.O=[N+]([O-])O`, the “hERG current change (%, negative = inhibition) at 1uM” value was 7.04%.

For the compound `COC(=O)c1cc(NC(=O)CSc2nnc(N)s2)ccc1Cl`, the “hERG current change (%, negative = inhibition) at 1uM” value is recorded as 13.6%.

In the case of `Cc1cc(C)cc(OCC(O)CN2CC(C)OC(C)C2)c1.Cl` (stereo not drawn), the “hERG current change (%, negative = inhibition) at 1uM” value was determined as 8.71%.

As to `CC1(C)Cc2c(sc(NC(=O)C(=O)N3CCN(CCO)CC3)c2C(N)=O)CO1`, the “hERG current change (%, negative = inhibition) at 1uM” value is 11.3%.

Regarding `CCS(=O)(=O)c1ccc(O)c(NC(=O)/C=C/c2ccccc2)c1`, the “hERG current change (%, negative = inhibition) at 1uM” value is recorded as 8.63%.

Turning to `CC1=C(C)CC(C(=O)NCc2c(F)cccc2Cl)C(C(=O)O)C1` (stereo not drawn), the “hERG current change (%, negative = inhibition) at 1uM” value came out at 16.3%.

On to `S=c1[nH]nc(COc2ccccc2)n1/N=C/c1ccncc1`, for which the “hERG current change (%, negative = inhibition) at 1uM” value was 12.8%.

For the compound `Cc1cc(C)cc(-n2nnc(C(=O)NCc3ccccc3)c2N)c1`, the “hERG current change (%, negative = inhibition) at 1uM” value was 5.79%.

`COc1ccccc1NS(=O)(=O)c1cccc(C(=O)NC2CCN(Cc3ccccc3)CC2)c1`: the “hERG current change (%, negative = inhibition) at 1uM” value was -17.1%.

`[N-]=[N+]=CC(=O)OC[C@H](N)C(=O)O`: the “hERG current change (%, negative = inhibition) at 1uM” value is on record as 11.6%.

As for `CCN1CCN(Cc2ccc(NC(=O)c3cc(NC(=O)c4cc5cccc(OC)c5o4)cc(OC)c3)cc2C(F)(F)F)CC1`, the “hERG current change (%, negative = inhibition) at 1uM” value is reported as 17.6%.

For `COc1ccc(/C=C2\N=C3CCCN3C2=O)cc1`, the “hERG current change (%, negative = inhibition) at 1uM” value amounted to 7.43%.

As to `COc1ccccc1C(=O)NCCCN1CCCC1=O`, the “hERG current change (%, negative = inhibition) at 1uM” value came to 5.92%.

`O=C(CN1CCC(O)(c2ccc3c(c2)OCO3)CC1)NC1CCCCC1`: the “hERG current change (%, negative = inhibition) at 1uM” value amounted to 14.3%.

`CCCNC(=O)C1CC(c2cccc(F)c2)=NO1` (stereo not drawn): the “hERG current change (%, negative = inhibition) at 1uM” value was determined as 2.85%.

For `CC1CCN(C(=S)Nc2ccc(F)cc2)CC1`, the “hERG current change (%, negative = inhibition) at 1uM” value was 9.94%.

Regarding `Cc1cccc(-c2nc(CSc3nc4c(c(=O)[nH]3)CCC4)c(C)o2)c1`, the “hERG current change (%, negative = inhibition) at 1uM” value is reported as 16.3%.

Turning to `O=C(CCc1ccccc1)Nc1ccc(F)c([N+](=O)[O-])c1`, the “hERG current change (%, negative = inhibition) at 1uM” value was 14.5%.

On to `CCOC(=O)C1=NOC2COC3(CCN(c4ncccn4)CC3)OCC12` (stereo not drawn), for which the “hERG current change (%, negative = inhibition) at 1uM” value amounted to 11.4%.

On to `COc1ccccc1N(C)S(=O)(=O)c1ccc(C(=O)OCC(=O)N(C(C)C)C(C)C)cc1`, for which the “hERG current change (%, negative = inhibition) at 1uM” value is -8.91%.

Take `NS(=O)(=O)c1ccc(CCNC(=O)C(=O)C2C(=O)Nc3ccccc32)cc1` (stereo not drawn): the “hERG current change (%, negative = inhibition) at 1uM” value was determined as 4.9%.

`CCn1c(-c2ccncc2)n[nH]c1=S`: the “hERG current change (%, negative = inhibition) at 1uM” value is given as 11.2%.

Consider `CC(C)(C)CC(=O)Nc1cccc(-c2cn3cccnc3n2)c1`, for which the “hERG current change (%, negative = inhibition) at 1uM” value is on record as -0.0164%.

As to `CCOC(=O)c1sc2nc(SC)nc(-c3ccc(Cl)cc3)c2c1N`, the “hERG current change (%, negative = inhibition) at 1uM” value is on record as 14.2%.

As to `O=C(CSC1=NS(=O)(=O)c2ccccc2N1)Nc1nccs1`, the “hERG current change (%, negative = inhibition) at 1uM” value was 9.95%.

In the case of `S=C(NC1CCCCC1)N1CCCCC1`, the “hERG current change (%, negative = inhibition) at 1uM” value is 14.8%.

For `CC(C)Nc1nnc(SC(C)C(=O)NCc2ccc3c(c2)OCO3)s1` (stereo not drawn), the “hERG current change (%, negative = inhibition) at 1uM” value is reported as 12.8%.

Consider `COc1cccc(OCC(O)CN2CCN(c3ccccc3)CC2)c1` (stereo not drawn), for which the “hERG current change (%, negative = inhibition) at 1uM” value was -3.86%.

As to `CCOC(=O)N1CCN(c2cc(=O)n(-c3cccc(C)c3)c(=O)[nH]2)CC1`, the “hERG current change (%, negative = inhibition) at 1uM” value amounted to 4.66%.

Consider `COc1ccc(CN2CCN(C(=O)CCC(=O)Nc3nnc(C4CCCCC4)s3)CC2)cc1F`, for which the “hERG current change (%, negative = inhibition) at 1uM” value is recorded as -1.35%.

For `OCCNc1nc(Cl)nc(NCc2ccco2)n1`, the “hERG current change (%, negative = inhibition) at 1uM” value came to 8.41%.

Consider `O=C(Cn1cnc2ccccc2c1=O)Nc1nnc(SCc2ccc(Cl)cc2)s1`, for which the “hERG current change (%, negative = inhibition) at 1uM” value is 11.2%.

Regarding `C=CCn1cccc(C(=O)Nc2ccc(N(C)C)cc2)c1=O`, the “hERG current change (%, negative = inhibition) at 1uM” value is 9.5%.

For the compound `CN(c1ccccc1)S(=O)(=O)c1cccc(NC(=O)c2cc3ccccc3oc2=O)c1`, the “hERG current change (%, negative = inhibition) at 1uM” value is 7.27%.

On to `Cc1ccc(-c2csc3nc4c5ccccc5c(NCCCN(C)C)nn4c(=O)c23)cc1`, for which the “hERG current change (%, negative = inhibition) at 1uM” value is listed as -47.9%.

Regarding `CCCNC(=O)CN(c1ccc(F)cc1)S(=O)(=O)c1ccc2c(c1)OCCO2`, the “hERG current change (%, negative = inhibition) at 1uM” value was 9.39%.

As to `O=C1CC(c2ccc3c(c2)OCO3)c2cc3c(cc2N1)OCO3` (stereo not drawn), the “hERG current change (%, negative = inhibition) at 1uM” value is 1.34%.

For the compound `Cc1cc(C(=O)N/N=C/c2cccnc2)cs1`, the “hERG current change (%, negative = inhibition) at 1uM” value is 15.2%.

Consider `COC(=O)c1ccc(C(NC(=O)OCc2ccccc2)/C(F)=C/[C@@H](C)C(=O)O)cc1` (stereo partly drawn), for which the “hERG current change (%, negative = inhibition) at 1uM” value is recorded as 8.52%.

Consider `CC(=O)[C@@]1(O)C(C)CC2C3C=C(C)C4=Cc5c(cnn5-c5ccccc5)C[C@]4(C)C3C(O)C[C@@]21C` (stereo partly drawn), for which the “hERG current change (%, negative = inhibition) at 1uM” value is on record as 10.3%.

On to `COc1ccccc1Nc1nc2ccccc2[nH]1`, for which the “hERG current change (%, negative = inhibition) at 1uM” value was -3.17%.

The values are drawn from article PMC4336329 (PLoS ONE, 2015).
